{"source": "PubChem BioAssay AID2675", "about": "(National Center for Advancing Translational Sciences (NCATS), 2010)", "note": "Hit rate of the full screen: of about 280,000 compounds, about 100 (0.036%) were called active. The inconclusive results got no clear call from the source; some entries with a clear call stand among them for comparison. The call rests on the fitted dose curve; in most records, active means well fitted inhibition curve with a large enough effect in the signal ratio, with a control signal flat (not every such curve was filed as active); inconclusive means small, poorly fitted or top-dose-only effect, or effect the other way, or a change in a side signal; inactive means no such curve, though single readings can be large or run the other way; the % refers to the signal ratio. Potencies beside an inconclusive call are fits to weak or partial responses and may not hold up. “Side channel” marks fits to a control or component signal instead of the main read-out. On the % scale 0 is the no-effect control and ±100 the full control effect; potency means the concentration at half of the fitted maximal effect; tags describe the fitted curve by direction and shape or compound fluorescence and quenching."}
{"target": "Muscleblind-like protein 1 (Homo sapiens) (UniProt Q9NR56)", "sequence (Q9NR56 whole entry, looked up)": "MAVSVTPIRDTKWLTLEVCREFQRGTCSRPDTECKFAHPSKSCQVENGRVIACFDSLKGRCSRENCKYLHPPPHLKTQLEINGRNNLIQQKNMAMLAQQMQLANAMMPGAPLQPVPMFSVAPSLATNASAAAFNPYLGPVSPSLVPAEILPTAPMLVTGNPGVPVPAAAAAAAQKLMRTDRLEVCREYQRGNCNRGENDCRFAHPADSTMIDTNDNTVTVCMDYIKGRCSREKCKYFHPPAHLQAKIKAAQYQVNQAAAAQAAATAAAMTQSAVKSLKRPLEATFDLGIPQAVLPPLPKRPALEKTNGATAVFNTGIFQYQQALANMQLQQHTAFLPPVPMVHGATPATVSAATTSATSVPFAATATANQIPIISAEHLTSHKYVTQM", "assay": "qHTS Assay for Inhibitors of MBNL1-poly(CUG) RNA binding", "settings": "TR-FRET MBNL1-His/biotin-(CUG)12 binding, 665/545 ratio; activity change, negative = inhibition: at 57.5 µM (top of the series)", "procedure,_shortened": "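TR-FRET readout: Ex 340 nm, 665/545 nm emission ratio, normalized to buffer-only (basal) and MBNL1-(CUG)12 controls. Complex of MBNL1-His with Biotin-(CUG)12, compounds 92 nM–58 uM, incubated 60 min at room temperature.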"}
{"smiles": "N/C(Cc1ccc(Cl)cc1)=N\\OC(=O)c1ccc2ccccc2c1", "activity change, negative = inhibition": "inactive: -3.34%"}
{"smiles": "Cc1ccc(C(=O)N/C(=C/c2cccs2)C(=O)NCC2CCCO2)cc1", "note": "(stereo unspecified)", "Potency": "inconclusive: 14.1 µM [quencher, side channel, partial curve]"}
{"smiles": "COC(=O)c1cc(-c2ccccc2)sc1NC(=O)c1cc(C)on1", "Potency": "inconclusive: 31.6 µM [fluorescent, side channel, partial curve]"}
{"smiles": "N#CC1=C(N)OC2=C(C(=O)CCC2)C1C1C=CCCC1", "note": "(stereo unspecified)", "activity change, negative = inhibition": "inactive: -2.43%"}
{"smiles": "CC(=O)N1c2ccccc2C(C)CC12CCCCC2", "note": "(stereo unspecified)", "Potency": "inconclusive: 6.31 µM [quencher, side channel, partial curve]"}
{"smiles": "Cc1c2cnn(CC(=O)Nc3c(F)c(F)cc(F)c3F)c(=O)c2c(C)n1Cc1ccccc1F", "activity change, negative = inhibition": "inactive: 1.93%"}
{"smiles": "C/C(O)=c1/ccc2cccc3nc(C)nc1c23", "Potency": "inconclusive: 25.1 µM [quencher, side channel, partial curve]"}
{"smiles": "CCOc1ccc(/C=N/NC(=O)C2CC2)cc1OC", "Potency": "inconclusive: 28.2 µM [quencher, side channel, single point]"}
{"smiles": "O=[N+]([O-])c1ccc(Oc2cccc(C(F)(F)F)c2)nc1", "Potency": "inconclusive: 20 µM [quencher, side channel, single point]"}
{"smiles": "CC(=O)Oc1ccc(NC(=O)Cc2ccccc2)c(C(=O)O)c1", "activity change, negative = inhibition": "inactive: -4.46%"}
{"smiles": "COc1ccccc1CC(NC(C)=O)C(=O)NC1CCN(C(=O)c2ccc([N+](=O)[O-])cc2)CC1", "note": "(stereo unspecified)", "Potency": "inconclusive: 39.8 µM [quencher, side channel, partial curve]"}
{"smiles": "COc1ccc(/C=C/C2=CC(C)(C)NC(=S)N2)c(OC)c1", "Potency": "inconclusive: 25.1 µM [quencher, side channel, single point]"}
{"smiles": "CC(O)c1nc2ccccc2n1C1CCCCC1", "note": "(stereo unspecified)", "Potency": "inconclusive: 28.2 µM [quencher, side channel, single point]"}
{"smiles": "Cc1ccc(-c2cc(-c3ccc(Cl)cc3)c(C#N)c(N)n2)o1", "Potency": "inconclusive: 17.8 µM [quencher, side channel, partial curve]"}
{"smiles": "Cc1ccc(NC(=O)COC(=O)c2cc(Cl)ccc2[N+](=O)[O-])cc1", "Potency": "inconclusive: 11.2 µM [quencher, side channel, partial curve]"}
{"smiles": "COc1ccc(S(=O)(=O)N2CCOCC2)cc1NC(=O)CO/N=C/c1ccccc1OC(F)F", "Potency": "inconclusive: 31.6 µM [fluorescent, side channel, partial curve, poor fit]"}
{"smiles": "Cc1ccc(NC(=S)N/C(=N/S(=O)(=O)c2ccccc2)c2ccccc2)cc1", "activity change, negative = inhibition": "inactive: 0.502%"}
{"smiles": "CCN1C(=O)/C(=C2\\C=Cc3ccccc3N2CC)SC1=S", "Potency": "inconclusive: 2.24 µM [quencher, side channel, full curve]"}
{"smiles": "CCn1c(O)c(N=NC(=O)C2C(=O)NCC2c2ccccc2)c2ccccc21", "note": "(stereo unspecified)", "Potency": "inconclusive: 17.8 µM [quencher, side channel, partial curve]"}
{"smiles": "O=C(c1ccco1)N1CCN(c2ncnc3sc4c(c23)CCC4)CC1", "activity change, negative = inhibition": "inactive: -8.33%"}
{"smiles": "Cc1cc(C)cc(OCC(=O)Nc2cccc(-c3nc4ncccc4o3)c2)c1", "activity change, negative = inhibition": "inactive: 16.7%"}
{"smiles": "C=CCNc1nc(-c2ccccn2)nnc1-c1ccccc1", "activity change, negative = inhibition": "inactive: -2.24%"}
{"smiles": "COC(=O)[C@H](C)NC(=O)c1cc2c(cn1)[nH]c1ccccc12", "activity change, negative = inhibition": "inactive: 13.4%"}
{"smiles": "COc1ccc(-c2nc3ccc(C(=O)NCC(OC)OC)cc3nc2-c2ccc(OC)c(OC)c2)cc1OC", "Potency": "inconclusive: 14.1 µM [quencher, side channel, partial curve]"}
{"smiles": "COc1ccc(-c2nc3ccc(C(=O)NCC(OC)OC)cc3nc2-c2ccc(OC)cc2)cc1", "Potency": "inconclusive: 14.1 µM [quencher, side channel, partial curve]"}
{"smiles": "COc1ccc(Cn2nnnc2CN(Cc2cc3cccc(C)c3[nH]c2=O)C2CCCC2)cc1", "activity change, negative = inhibition": "inactive: -2.84%"}
{"smiles": "O=C(OCC(=O)N1CCc2ccccc2C1)c1cccc([N+](=O)[O-])c1", "Potency": "inconclusive: 15.8 µM [quencher, side channel, partial curve]"}
{"smiles": "Nc1ccccc1Nc1cc(-c2ccccc2)nn1-c1cccc(Cl)c1", "activity change, negative = inhibition": "inactive: -2.03%"}
{"smiles": "CCN(CC(=O)NCCc1ccccc1)S(=O)(=O)c1ccc(Br)cc1", "Potency": "inconclusive: 39.8 µM [quencher, side channel, single point]"}
{"smiles": "Cc1nc(C(=O)N2CCc3c([nH]c4ccccc34)C2c2ccccn2)cs1", "note": "(stereo unspecified)", "Potency": "inconclusive: 20 µM [quencher, side channel, partial curve]"}
{"smiles": "CCc1cc(C(=O)OC)c(NC(=O)CC2Sc3ccc(C(F)(F)F)cc3NC2=O)s1", "note": "(stereo unspecified)", "Potency": "inconclusive: 4.47 µM [fluorescent, side channel, full curve, poor fit]"}
{"smiles": "COc1cccc(C2Nc3ccc4ccccc4c3C3=C2C(=O)CCC3)c1O", "note": "(stereo unspecified)", "activity change, negative = inhibition": "inactive: 3.3%"}
{"smiles": "C=CCn1c(-c2csc(-c3ccc(OC)c(OC)c3)n2)n[nH]c1=S", "activity change, negative = inhibition": "inactive: 86.1%"}
{"smiles": "O=c1c2ccc([N+](=O)[O-])cc2ncn1CCOc1cccc(Br)c1", "Potency": "inconclusive: 14.1 µM [quencher, side channel, partial curve]"}
{"smiles": "O=C(N/N=C/c1ccc[nH]1)c1ccccc1[N+](=O)[O-]", "Potency": "inconclusive: 17.8 µM [quencher, side channel, single point]"}
{"smiles": "Cc1cc(NS(=O)(=O)c2cccc([N+](=O)[O-])c2)no1", "Potency": "inconclusive: 25.1 µM [quencher, side channel, partial curve]"}
{"smiles": "Cc1ccc([N+](=O)[O-])cc1S(=O)(=O)Nc1ccc(O)c(Sc2ncn[nH]2)c1", "Potency": "inconclusive: 14.1 µM [quencher, partial curve]"}
{"smiles": "N#C/C(=C\\c1c(N2CCOCC2)nc2ccccn2c1=O)S(=O)(=O)c1ccccc1", "Potency": "inconclusive: 15.8 µM [quencher, side channel, partial curve]"}
{"smiles": "Cc1c(N=C2C=CC(=O)c3ccccc32)c(=O)n(-c2ccccc2)n1C", "Potency": "inconclusive: 12.6 µM [quencher, partial curve]"}
{"smiles": "O=C(NC(=S)NCc1ccccc1)c1ccccc1", "activity change, negative = inhibition": "inactive: -8.87%"}
{"smiles": "COCCCn1c(=O)/c(=C\\c2ccccc2OC(F)F)s/c1=C(/C#N)C(=O)N1CCOCC1", "Potency": "inconclusive: 28.2 µM [quencher, side channel, partial curve]"}
